# From the supplement of paper PMC11383711
# Some of the results follow. Binding of human antibodies (heavy:light variable regions, tested as scFv in one mRNA-display pool) to influenza hemagglutinin, with or without the stem antibody CR9114 bound first. Score = (mean enrichment − median) / interquartile range of that screen; higher = more enriched, 0 = typical non-binder. Active = above the paper's cut-off per screen: stems 28; unblocked H1 Solomon Islands 5, H1 Michigan 3, H3 5, H5 19, H7 2.85, both B 5; blocked 9, 7, H5 10, H7 10, B Phuket 10, B Lee 11.5. Scores are scaled within each screen and are no affinities; replicates correlate at about 0.6 to 0.9, and antibodies rare in the pool are noisier.
# B1: C2-3-F04 (protein)
# chain 1: VQLVESGGGVVQPGRSLRLSCAASGFSFRDFSMHWVRQAPGMGLEWVTLISYDGTNTFYADSVKGRFTISRDNSKNTLFLQLNSLRTEDTAVYYCARDYRHGLIDFWGQGTLVTVSS
# chain 2: DVVMTQSPLSLPVPLGQPASISCRSSDSLVSVDGNTYLNWFQQRPGQSPRRLIYQVSNRDSGVPERFSGSGSDTDFTLKISRVEAEDVGVYYCMQGTYWPPITFGQGTRLEIK
# B2: W85-3C05 (protein)
# chain 1: EVQLVESGGGLVQPGGSLRLSCAASGFTVSSNYLSWVRQAPGKGLEWVSVIYGGGNTYYADSVKGRFTISRHNSKNTLYLQMNNLRAEDTAVYYCASHVLRFLEEGFDMWGQGTMVTVSS
# chain 2: DIQMTQSPSSLSASVGDRVTITCRASQSISSYLNWYQQEPGKVPKLLIYSASSLHSGVPSRFSGSGSGTDFTLTISSLQPEDFATYYCQQTYSTSLTLGGGTKVEIK
# B3: K77-2A10 (protein)
# chain 1: EVQLVESGGGLVQPGGSLRLSCEASGFIFSTYSMNWVRQAPGKGLEWVSYISDSSRTIYYADSVKGRFTISRDNTKNSLFLQMNNLRAEDTALYYCARDPDTPFIRAFDSWGQGTLVTVSS
# chain 2: DIQLTQSPSFLSASVGDRVTITCRASQDISSYVAWYQQKPGKAPKLLIYATSTLQSGVPSRFSGGGSGTEFTLTIRGLQPEDFATYYCQQLNIYPPVTFGQGTKLEIK
# B4: 01.d.04 (protein)
# chain 1: EVQLVESGGGVVQPGGSLRLSCAASGFTFSDYGIHWVRQAPAKGLEWVTFIRHDGNSEYFVDSVKGRFTVSRDNSKNTVYLQVNRLRPDDTAIYYCAKDAVWSGYYPTHSYFEYWGQGTLVPVSS
# chain 2: DIQMTQVPVSLSASVGDRVTITCRASQGISNYLNWYQQKPGKAPKLLIYAISNLFSGVPSRFSGSESGTDFTLTISSLQPEDFATYYCQQTYTTPQTFGQGTKVEIK
# B5: C1-2B06 (protein)
# chain 1: VQLQESGPGLVKPSETLSLTCSVSGDSISETIYYWGWIRQSQGKGLEWIGNVYYDASTYYNPSLKSRVTMSIDTSKNQFSLKVSSVTAADTAVYYCARVPDGYKYYYGMDVWGQGTTVTVSS
# chain 2: EIVMTQSPATLSVSPGERVTLSCRASQGVSSKLAWYQQKRGQAPRLLIYGASTRATGIPARFSGSGSGTEFTLTISSLQSEDFAIYYCQQYYNWTPITFGQGTRLEIK
# B6: 042-10-2D01 (protein)
# chain 1: QVQLQESGPRVVKPSETLSLTCSVSGESISSFYWSWIRQPAGKGLEWIGRIDSSGSTNYNPSLKSRVSMSLDTSKKQVSLKLTSVTAADTAVYYCVRDWWEVQYGNAFDMWGQGTMVTVSS
# chain 2: DIQMTQSPSSLSASVGDRVILTCRASQSIGTYLNWYQQKPGKAPKFLIYVASNLQSGVPSRFSGSGSGTDFTLTISSLQPEDFATYFCQQSHSIPWTFGQGTKVEIK
# Biological target: Influenza A H1N1 A/Michigan/45/2015 hemagglutinin ectodomain
# Assay: mRNA display binding score; higher = more enriched on the antigen
# Conditions: antigen blocked with: 2 µM CR9114 IgG
# Method: (§1)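 A pool of natively paired antibodies, displayed as scFv on mRNA, was selected once on antigen-coated beads and sequenced before and after; two replicates.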
row,Binder,mRNA display binding score
1,B1,inactive: 0.447
2,B2,inactive: 0.526
3,B3,inactive: -0.0198
4,B4,inactive: 0.938
5,B5,inactive: -0.2
6,B6,active: 54.9

# Same assay, conditions: antigen blocked with: nothing
row,Binder,mRNA display binding score
1,B1,inactive: -0.0019
2,B2,inactive: -0.653
3,B3,inactive: 0.151
4,B4,active: 3.14
5,B5,inactive: 0.223
6,B6,inactive: 2.13

# Biological target: Influenza A H1N1 A/Solomon Islands/3/2006 hemagglutinin ectodomain
# Assay: as above
# Conditions: antigen blocked with: 2 µM CR9114 IgG
# Method: as §1
row,Binder,mRNA display binding score
1,B1,inactive: 0.0792
2,B2,inactive: -0.487
3,B3,inactive: 0.0913
4,B4,inactive: 1.36
5,B5,inactive: -0.0883
6,B6,inactive: 2.13

# Same assay, conditions: antigen blocked with: nothing
row,Binder,mRNA display binding score
1,B1,inactive: -0.183
2,B2,inactive: -0.47
3,B3,inactive: 0.164
4,B4,inactive: 1.22
5,B5,inactive: -0.186
6,B6,inactive: 0.537

# Biological target: Influenza A H3N2 A/Singapore/INFIMH-16-0019/2016 hemagglutinin ectodomain
# Assay: as above
# Conditions: antigen blocked with: nothing
# Method: as §1
row,Binder,mRNA display binding score
1,B1,inactive: 1.27
2,B2,inactive: -0.556
3,B3,inactive: 0.39
4,B4,inactive: 1.55
5,B5,inactive: 1.06
6,B6,inactive: 0.335

# Biological target: Influenza A H5N1 A/Qinghai/1A/2005 hemagglutinin ectodomain
# Assay: as above
# Conditions: antigen blocked with: 2 µM CR9114 IgG
# Method: as §1
row,Binder,mRNA display binding score
1,B1,inactive: -0.389
2,B2,inactive: -0.516
3,B3,inactive: 4.57
4,B4,inactive: 1.59
5,B5,inactive: 0.179
6,B6,inactive: 0.407

# Same assay, conditions: antigen blocked with: nothing
row,Binder,mRNA display binding score
1,B1,inactive: 0.272
2,B2,inactive: -0.541
3,B3,inactive: 6.69
4,B4,inactive: 0.736
5,B5,inactive: 1.18
6,B6,inactive: 0.033

# Biological target: Influenza A H7N9 A/Shanghai/2/2013 hemagglutinin ectodomain
# Assay: as above
# Conditions: antigen blocked with: 2 µM CR9114 IgG
# Method: as §1
row,Binder,mRNA display binding score
1,B1,inactive: -0.0629
2,B2,inactive: -1.48
3,B3,inactive: -0.42
4,B4,inactive: 1.13
5,B5,inactive: 1.63
6,B6,active: 36.7

# Same assay, conditions: antigen blocked with: nothing
row,Binder,mRNA display binding score
1,B1,inactive: -0.036
2,B2,inactive: -0.777
3,B3,inactive: 0.23
4,B4,active: 3.18
5,B5,inactive: 0.673
6,B6,inactive: 0.159

# Biological target: Influenza B/Lee/1940 hemagglutinin ectodomain
# Assay: as above
# Conditions: antigen blocked with: 2 µM CR9114 IgG
# Method: as §1
row,Binder,mRNA display binding score
1,B1,inactive: -0.522
2,B2,inactive: 0.379
3,B3,inactive: -0.385
4,B4,inactive: -0.193
5,B5,inactive: 0.0764
6,B6,inactive: 0.621

# Same assay, conditions: antigen blocked with: nothing
row,Binder,mRNA display binding score
1,B1,inactive: -0.0816
2,B2,inactive: -0.104
3,B3,inactive: 0.128
4,B4,inactive: -0.191
5,B5,inactive: -0.145
6,B6,inactive: 0.0173

# Biological target: Influenza B/Phuket/3073/2013 hemagglutinin ectodomain
# Assay: as above
# Conditions: antigen blocked with: 2 µM CR9114 IgG
# Method: as §1
row,Binder,mRNA display binding score
1,B1,inactive: -0.519
2,B2,inactive: -0.515
3,B3,active: 29
4,B4,inactive: 0.52
5,B5,active: 24.6
6,B6,inactive: 0.694

# Same assay, conditions: antigen blocked with: nothing
row,Binder,mRNA display binding score
1,B1,inactive: -0.269
2,B2,inactive: -0.416
3,B3,active: 38.7
4,B4,inactive: 0.732
5,B5,active: 36.3
6,B6,inactive: -0.109
